Results published in PMC4336329 (PLoS ONE, 2015).
The whole screen tested about 310,000 compounds, of which about 2,200 (0.71%) showed an effect of 50% or more. The effect is printed as a negative number. This is one part of the list.

target: human ether-à-go-go-related gene (hERG) potassium channel (human, UniProt Q12809); assay: primary screen, population patch clamp on CHO cells stably expressing hERG
Sequence (Q12809 whole entry, looked up): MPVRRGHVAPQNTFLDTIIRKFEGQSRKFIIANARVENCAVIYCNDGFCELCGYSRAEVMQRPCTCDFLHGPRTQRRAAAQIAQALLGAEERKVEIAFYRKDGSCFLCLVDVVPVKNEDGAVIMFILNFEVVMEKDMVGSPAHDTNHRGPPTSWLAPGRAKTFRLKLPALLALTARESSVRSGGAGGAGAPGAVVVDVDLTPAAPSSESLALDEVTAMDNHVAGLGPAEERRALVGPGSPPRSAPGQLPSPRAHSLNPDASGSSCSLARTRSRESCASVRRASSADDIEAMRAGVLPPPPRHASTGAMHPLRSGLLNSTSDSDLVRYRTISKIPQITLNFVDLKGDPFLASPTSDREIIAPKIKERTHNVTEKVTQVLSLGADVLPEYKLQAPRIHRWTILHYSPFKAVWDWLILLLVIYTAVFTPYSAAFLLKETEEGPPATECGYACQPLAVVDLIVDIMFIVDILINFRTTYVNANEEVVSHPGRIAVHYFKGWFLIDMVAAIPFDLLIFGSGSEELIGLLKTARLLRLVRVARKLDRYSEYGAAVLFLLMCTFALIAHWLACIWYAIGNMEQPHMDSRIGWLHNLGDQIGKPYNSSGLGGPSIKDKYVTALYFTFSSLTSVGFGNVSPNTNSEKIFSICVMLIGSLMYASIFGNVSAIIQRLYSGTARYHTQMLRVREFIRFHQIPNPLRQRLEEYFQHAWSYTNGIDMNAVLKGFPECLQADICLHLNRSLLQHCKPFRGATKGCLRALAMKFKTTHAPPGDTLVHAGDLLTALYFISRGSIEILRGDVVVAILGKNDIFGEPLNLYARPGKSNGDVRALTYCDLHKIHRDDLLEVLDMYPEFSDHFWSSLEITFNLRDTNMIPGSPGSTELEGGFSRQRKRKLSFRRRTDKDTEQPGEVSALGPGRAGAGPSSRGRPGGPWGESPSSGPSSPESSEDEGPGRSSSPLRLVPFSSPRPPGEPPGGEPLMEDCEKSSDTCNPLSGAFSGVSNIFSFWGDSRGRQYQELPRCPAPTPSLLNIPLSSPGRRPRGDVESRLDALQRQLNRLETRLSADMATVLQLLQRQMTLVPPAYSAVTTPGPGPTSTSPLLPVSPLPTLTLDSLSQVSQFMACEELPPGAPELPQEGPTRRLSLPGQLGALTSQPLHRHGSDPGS

Row | Compound | hERG current change (%, negative = inhibition) at 1uM
1 | COc1ccc2nc(C)cc(N3CCC(C(N)=O)CC3)c2c1 | -2.62%
2 | Brc1cc2ccccc2[n+](Cc2ccccc2)c1.[Br-] | 2.83%
3 | O=C(NCc1ccco1)C(=O)NCC1OCCN1S(=O)(=O)c1ccc(Cl)cc1 (stereo not shown) | 6.25%
4 | Cc1ccc(S(=O)(=O)N(C)c2ccc(C(=O)Nc3ccc(C)cn3)cc2)cc1 | 15.4%
5 | CC1CN(CCOc2cccc(Oc3ccccc3)c2)CC(C)O1.O=C(O)C(=O)O (stereo not shown) | 24.5%
6 | CCOC(=O)NC(=O)/C(C#N)=C\Nc1ccc(Cl)cc1Cl | 10.5%
7 | S=C(NCc1cccnc1)Nc1ccc2c(c1)OCO2 | -0.412%
8 | CC(C)[C@H](NC(N)=O)C(=O)Nc1ccc(F)c(Cl)c1 | 10.9%
9 | Clc1ccc(OCc2nn3c(-c4ccco4)nnc3s2)c(Cl)c1 | -1.26%
10 | O/N=C(/Cc1ccccn1)c1ccccc1 | 8.85%
11 | O=C(C1COc2ccccc2O1)N1CCCCC1 (stereo not shown) | 13.2%
12 | O=C1CSCC(=O)N1c1ccccc1 | 7.93%
13 | CC1(C)CC2CC(C)(CN2C(=O)COC(=O)c2ccc(Cl)cc2N)C1 (stereo not shown) | -3.27%
14 | CC(OC(=O)COc1cccc2c1OC(C)(C)C2)C(=O)Nc1ccc(S(N)(=O)=O)cc1 (stereo not shown) | 5.17%
15 | CCOCCCNC(=O)C1CCCCN1S(=O)(=O)c1ccc(F)cc1 (stereo not shown) | 2.91%
16 | COC(C(=O)Nc1ccnn1C1CCN(C(=O)c2ccc(C)cc2)CC1)c1ccccc1 (stereo not shown) | 4.64%
17 | CCOC(=O)CC(NC(=O)c1ccco1)c1ccc(C)cc1 (stereo not shown) | 11.4%
18 | CCOC(=O)Nc1oc2ccccc2c(=O)c1C | -5.07%
19 | CC1CCCC(NC(=O)COC(=O)CCSc2ccccc2)C1C (stereo not shown) | 11.4%
20 | O=C(c1ccccc1)N1CCCC(C(=O)N2CCN(c3ccccc3)CC2)C1 (stereo not shown) | 9.45%

Row | Compound | hERG current change (%, negative = inhibition) at 1uM
21 | COc1cccc2c(=O)n(CC(=O)N3CCN(c4ccccc4)CC3)ccc12 | -3.64%
22 | COC(=O)c1ccccc1NC(=O)COC(=O)c1ccc(C)c(NC(=O)c2ccco2)c1 | -20.3%
23 | Cc1[nH]n(-c2ccc([N+](=O)[O-])cc2)c(=O)c1C=NCCN1CCN(C(=O)c2ccc(Br)cc2)CC1 | -77.4%
24 | CCOC(=O)N1CCC(=NNC(=O)COc2ccc(C#N)cc2)CC1 | 5.21%
25 | CCOC(=O)Nc1ccc(S(=O)(=O)Nc2nccc(C)n2)cc1 | 7.8%
26 | COc1ccc2c(c1)C=C(C(=O)NCc1ccc(Cl)cc1)CO2 | -6.77%
27 | CCc1nn2c(=O)cc(CSCC(=O)Nc3ccccc3Cl)nc2s1 | 16.2%
28 | Cc1c(O)ccc(C(=O)CN2CCN(Cc3ccccc3)CC2)c1O | -0.994%
29 | O=C(NCCS(=O)(=O)N1CCN(c2cccc(Cl)c2)CC1)c1cc(=O)c2ccccc2o1 | 4.34%
30 | Cc1ccc(OCCCC(=O)NCc2ccco2)c(C)c1 | 11.8%
31 | Cc1c(C(=O)O)nnn1-c1ccccc1 | 9.38%
32 | O=C(Nc1cccnc1Cl)c1cc(-c2ccc(O)cc2)on1 | 22.1%
33 | Cc1nn(-c2ccccc2)c2sc(C(=O)N3CCOCC3)cc12 | 0.778%
34 | O=C(CSc1nnc(-c2ccc(Cl)cc2)n1-c1ccccc1)N/N=C/c1ccccc1C(=O)O | -0.291%
35 | CCn1c(O)c(/C=N/N=C2CCCC2)c2ccc(C3=NNC(=O)CC3)cc21 | 8.2%
36 | CC(=O)c1ccc2c(c1)N(C)c1ccccc1S2 | 4.48%
37 | Cc1cc(SCC(=O)OC/C(O)=C(\C#N)c2nc3ccccc3[nH]2)c(C)cc1Br | 12.7%
38 | O=S(=O)(c1ccc(N2CCCCCC2)nc1)N1CCCC1 | 14%
39 | Cc1ccc(F)cc1NC(=O)CCc1c(C)nn(-c2ccc(N3CCCCC3)nn2)c1C | 11.4%
40 | Cc1cccc(OCC(=O)N2CCN(C(=O)COc3ccc(Cl)cc3)CC2)c1 | -56.6%

Row | Compound | hERG current change (%, negative = inhibition) at 1uM
41 | Cl.Nc1ccc2c(c1)OCCOCCOCCOCCOCCO2 | -12.2%
42 | CN(C(=O)COC(=O)CNC(=O)c1ccccc1F)C1CCCCC1 | 11.1%
43 | Cc1ccc(C(=O)/C=C/c2ccccc2[N+](=O)[O-])cc1 | 8.96%
44 | Nc1c([N+](=O)[O-])cc(-c2cnc[nH]2)cc1[N+](=O)[O-] | 8.5%
45 | O=C(CSc1nnnn1C1CCCCC1)N1CCc2ccccc21 | -0.564%
46 | COc1ccc2cc(CCl)c(Cl)nc2c1 | -0.928%
47 | COc1ccc(CNC(=O)CCSCc2cccc(Cl)c2)c(OC)c1 | -2.85%
48 | O=C(Nc1ccccn1)C(=O)N1CCCCC1 | 10.1%
49 | CCOc1ncccc1C(=O)NCCc1c[nH]c2ccccc12 | 9.61%
50 | O=C(CN1CCC(n2nnc3cc(C(F)(F)F)ccc32)CC1)Nc1ccc2c(c1)CCC2 | 12.6%
51 | O=C(c1cnc2sccn2c1=O)N(Cc1ccccc1)c1ccccn1 | 3.66%
52 | Cc1ccccc1C(=O)N1CCC(C(=O)Nc2ccccn2)CC1 | 7.06%
53 | CC(C)c1ccc(NC2CCCN(C(=O)CCN3CCCCC3=O)C2)cc1 (stereo not shown) | 15.4%
54 | N#Cc1c(N)nc2c3c(sc(=N)c2c1N)NC(=O)CC3c1ccccc1 (stereo not shown) | 14.9%
55 | CC(=O)N1c2ccccc2C(C)(c2ccccc2)CC1(C)C (stereo not shown) | -16.7%
56 | O=C(CCCn1c(=S)[nH]c2ccccc2c1=O)NC1CCCCC1 | 12.7%
57 | COc1ccc(CC(=O)NNC(=S)Nc2ccccc2)cc1Br | 6.42%
58 | COC(=O)Cc1ccc(NC(=S)NCc2ccc(OC)cc2)cc1 | 13.1%
